{
  "source": "the supplement of paper PMC9588766",
  "note": "Where a name gives a salt, the structure may show the parent alone. The full ranking holds about 1,900 compounds; the median of “cell viability of compound + 1 nM pemigatinib relative to pemigatinib-only (DMSO) wells” is about 0.95, and the lowest 2% start at about 0.22. This is one part of the list.",
  "data": [
    {"tested_on": "PDC-DUC18828", "assay": "cell viability of compound + 1 nM pemigatinib relative to pemigatinib-only (DMSO) wells (fraction); PDC-DUC18828 is a patient-derived cholangiocarcinoma cell line; higher = less growth inhibition", "details": "first compound 1 µM; pemigatinib concentration 1 nM; 72 h", "procedure": "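Selleck Bioactive library screen in the patient-derived FGFR2 fusion-positive ICC cell line PDC-DUC18828 (500 cells/well). Each compound was tested at 1 uM with 1 nM pemigatinib, in triplicate, for 72 h. Viability was read by CellTiter-Glo and normalised to plate DMSO controls. Value is the paper's averaged normalised viability.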", "values": [
      {"smiles": "O=c1[nH]c2ccc(Cl)cc2c(N[C@@H]2CN3CCC2CC3)c1-c1nc2ccccc2[nH]1", "note": "+ CCN1C(=O)N(c2c(F)c(OC)cc(OC)c2F)Cc2cnc3[nH]c(CN4CCOCC4)cc3c21 [pemigatinib]", "cell viability": 0.934},
      {"smiles": "CCN(CC)C(=O)c1ccc(C2=CC3(CCNCC3)Oc3cccc(O)c32)cc1", "note": "+ CCN1C(=O)N(c2c(F)c(OC)cc(OC)c2F)Cc2cnc3[nH]c(CN4CCOCC4)cc3c21 [pemigatinib]", "cell viability": 0.979},
      {"smiles": "CN(C)C(=O)Oc1ccc[n+](C)c1", "note": "[Pyridostigmine Bromide] + CCN1C(=O)N(c2c(F)c(OC)cc(OC)c2F)Cc2cnc3[nH]c(CN4CCOCC4)cc3c21 [pemigatinib]", "cell viability": 1.04},
      {"smiles": "CN1CCN(c2nc3ccccc3nc2Cl)CC1", "note": "+ CCN1C(=O)N(c2c(F)c(OC)cc(OC)c2F)Cc2cnc3[nH]c(CN4CCOCC4)cc3c21 [pemigatinib]", "cell viability": 0.871},
      {"smiles": "C[C@@H]1[C@H](O)[C@@H](C)/C=C/C=C/CC/C=C/C=C/C=C/C=C/[C@H](O[C@H]2O[C@@H](C)[C@H](O)[C@@H](N)[C@H]2O)C[C@@H]2O[C@](O)(C[C@@H](O)[C@H](O)CC[C@@H](O)C[C@@H](O)C[C@@H](O)CC(=O)O[C@H]1C)C[C@H](O)[C@H]2C(=O)O", "note": "[Nystatin (Fungicidin)] + CCN1C(=O)N(c2c(F)c(OC)cc(OC)c2F)Cc2cnc3[nH]c(CN4CCOCC4)cc3c21 [pemigatinib]", "cell viability": 1.01},
      {"smiles": "CC(C)NCC(O)c1ccccc1Cl", "note": "(centres undefined) [Clorprenaline HCl] + CCN1C(=O)N(c2c(F)c(OC)cc(OC)c2F)Cc2cnc3[nH]c(CN4CCOCC4)cc3c21 [pemigatinib]", "cell viability": 0.982},
      {"smiles": "Cc1cc2c(C(C)C)c(O)c(O)c(C=O)c2c(O)c1-c1c(C)cc2c(C(C)C)c(O)c(O)c(C=O)c2c1O", "note": "[Gossypol] + CCN1C(=O)N(c2c(F)c(OC)cc(OC)c2F)Cc2cnc3[nH]c(CN4CCOCC4)cc3c21 [pemigatinib]", "cell viability": 0.906},
      {"smiles": "CCc1c(C(=O)C(N)=O)c2c(OCC(=O)O)cccc2n1Cc1ccccc1", "note": "+ CCN1C(=O)N(c2c(F)c(OC)cc(OC)c2F)Cc2cnc3[nH]c(CN4CCOCC4)cc3c21 [pemigatinib]", "cell viability": 0.923},
      {"smiles": "Cc1sc2c(c1C)C(c1ccc(Cl)cc1)=N[C@@H](CC(=O)Nc1ccc(O)cc1)c1nnc(C)n1-2", "note": "+ CCN1C(=O)N(c2c(F)c(OC)cc(OC)c2F)Cc2cnc3[nH]c(CN4CCOCC4)cc3c21 [pemigatinib]", "cell viability": 0.767},
      {"smiles": "COc1ccc(C(CN(C)C)C2(O)CCCCC2)cc1", "note": "(centres undefined) [Venlafaxine] + CCN1C(=O)N(c2c(F)c(OC)cc(OC)c2F)Cc2cnc3[nH]c(CN4CCOCC4)cc3c21 [pemigatinib]", "cell viability": 1.07},
      {"smiles": "C[C@]12CCC(=O)C(O)=C1CC[C@@H]1[C@@H]2CC[C@]2(C)C(=O)CC[C@@H]12", "note": "[Formestane] + CCN1C(=O)N(c2c(F)c(OC)cc(OC)c2F)Cc2cnc3[nH]c(CN4CCOCC4)cc3c21 [pemigatinib]", "cell viability": 1.01},
      {"smiles": "N#C[C@H](O[C@@H]1O[C@H](C(=O)O)[C@@H](O)[C@H](O)[C@H]1O)c1ccccc1", "note": "[Laetrile] + CCN1C(=O)N(c2c(F)c(OC)cc(OC)c2F)Cc2cnc3[nH]c(CN4CCOCC4)cc3c21 [pemigatinib]", "cell viability": 1.03},
      {"smiles": "CNCC(O)c1ccc(O)cc1", "note": "(centres undefined) [Synephrine HCl] + CCN1C(=O)N(c2c(F)c(OC)cc(OC)c2F)Cc2cnc3[nH]c(CN4CCOCC4)cc3c21 [pemigatinib]", "cell viability": 0.935},
      {"smiles": "CNCC(O)c1ccc(O)cc1", "note": "(centres undefined) [Synephrine] + CCN1C(=O)N(c2c(F)c(OC)cc(OC)c2F)Cc2cnc3[nH]c(CN4CCOCC4)cc3c21 [pemigatinib]", "cell viability": 0.986},
      {"smiles": "CCOc1ccccc1-n1c(C(C)N2CCN(C(=O)COc3ccc(Cl)cc3)CC2)nc2ccccc2c1=O", "note": "(centres undefined) [Erastin] + CCN1C(=O)N(c2c(F)c(OC)cc(OC)c2F)Cc2cnc3[nH]c(CN4CCOCC4)cc3c21 [pemigatinib]", "cell viability": 0.952},
      {"smiles": "CN1[C@@H]2CC[C@H]1C[C@@H](OC(=O)C(CO)c1ccccc1)C2", "note": "(some centres undefined) [Atropine] + CCN1C(=O)N(c2c(F)c(OC)cc(OC)c2F)Cc2cnc3[nH]c(CN4CCOCC4)cc3c21 [pemigatinib]", "cell viability": 0.994},
      {"smiles": "COc1cc(C)[nH]c(=O)c1CNC(=O)c1c(C)n([C@H](C)C2CCOCC2)c2ccccc12", "note": "+ CCN1C(=O)N(c2c(F)c(OC)cc(OC)c2F)Cc2cnc3[nH]c(CN4CCOCC4)cc3c21 [pemigatinib]", "cell viability": 0.971},
      {"smiles": "CN1C(=O)CCS(=O)(=O)C1c1ccc(Cl)cc1", "note": "(centres undefined) [Chlormezanone] + CCN1C(=O)N(c2c(F)c(OC)cc(OC)c2F)Cc2cnc3[nH]c(CN4CCOCC4)cc3c21 [pemigatinib]", "cell viability": 1.01},
      {"smiles": "O=P1(N(CCCl)CCCl)NCCCO1", "note": "(centres undefined) [Cyclophosphamide Monohydrate] + CCN1C(=O)N(c2c(F)c(OC)cc(OC)c2F)Cc2cnc3[nH]c(CN4CCOCC4)cc3c21 [pemigatinib]", "cell viability": 1.02},
      {"smiles": "c1ccc2c(c1)sc1ccccc12", "note": "[Dibenzothiophene] + CCN1C(=O)N(c2c(F)c(OC)cc(OC)c2F)Cc2cnc3[nH]c(CN4CCOCC4)cc3c21 [pemigatinib]", "cell viability": 1.03},
      {"smiles": "Cc1ccc(-n2nccn2)c(C(=O)N2CCN(c3nc4cc(Cl)ccc4o3)CC[C@H]2C)c1", "note": "[Suvorexant (MK-4305)] + CCN1C(=O)N(c2c(F)c(OC)cc(OC)c2F)Cc2cnc3[nH]c(CN4CCOCC4)cc3c21 [pemigatinib]", "cell viability": 0.973},
      {"smiles": "CCCN1CCO[C@@H]2c3cc(O)ccc3OC[C@H]21", "note": "+ CCN1C(=O)N(c2c(F)c(OC)cc(OC)c2F)Cc2cnc3[nH]c(CN4CCOCC4)cc3c21 [pemigatinib]", "cell viability": 1.07},
      {"smiles": "CCCCCCCCCCCCCCCC[n+]1ccccc1", "note": "[Cetylpyridinium Chloride] + CCN1C(=O)N(c2c(F)c(OC)cc(OC)c2F)Cc2cnc3[nH]c(CN4CCOCC4)cc3c21 [pemigatinib]", "cell viability": 0.67},
      {"smiles": "C[C@H]1CNCCc2ccc(Cl)cc21", "note": "[Lorcaserin HCl] + CCN1C(=O)N(c2c(F)c(OC)cc(OC)c2F)Cc2cnc3[nH]c(CN4CCOCC4)cc3c21 [pemigatinib]", "cell viability": 0.933}
    ]}
  ]
}
